Assay in all cases: SPR (Biacore)
For orientation: Surface plasmon resonance follows binding to a sensor surface in real time, without labels.

For experiment [1], the target named is BCMA-107 x CD3.
For experiment [2], the target named is BC 244-C6 x CD3.
The target in experiment [3] is BC 247-C3 x CD3.

The Kd is a measure of binding affinity in units of concentration. Low values mean higher affinity, high ones lower affinity.

B1: Macaque BCMA (receptor)
chain (part 1 of 2): [… about 60 residues …]NASGGGGSEAHKSEIAHRYNDLGEQHFKGLVLIAFSQYLQKCSYDEHAKLVQEVTDFAKTCVADESAANCDKSLHTLFGDKLCAIPNLRENYGELADCCTKQEPERNECFLQHKDDNPSLPPFERPEAEAMCTSFKENPTTFMGHYLHEVARRHPYFYAPELLYYAEQYNEILTQCCAEADKESCLTPKLDGVKEKALVSSVRQRMKCSSMQKFGERAFKAWAVARLSQTFPNADFAEITKLATDLTKVNKECCHGDLLECADDRAELAKYMCENQATISSKLQTCCDKPLLKKAHCLSEVEHDTMPADLPAIAADFVEDQEVCKNYAEAKDVFLGTFLYEYSRRHPDYSVSLLLRLAKKYEATLEKCCAEANPPACYGTVLAEFQPLVEEPKNLVKTNCDLYEKLGEYGFQNAILVRYTQKAPQVSTPTLVEAARNLGRVGTKCCTLPEDQRLPCVEDYLSAILNRVCLLHEKTPVSEHVTKCCSGSLVERRPCFSALTVDETYVPKEFKAETFTFHSDICTLPEKEKQIKKQTALAELVKHKPKATAEQLKTVMDDFAQFLDTCCKAADKDTCFSTEGPNLVTRCKDALA
chain (part 2 of 2): SGHHGGHHGGHH
Take B1: the results for the Kd in experiment [1], in experiment [2] and in experiment [3] were 11700 pM, 600 pM and 600 pM, respectively.

The values are drawn from patent US20140348837A1 (published 2014).
